# Key:
# PTP1B = biological target: T1, PTP1B (Homo sapiens, UniProt P18031); test: PTP1B assay (p-NPP hydrolysis, UV at 420 nm); assay type: biochemical; conditions: Table 2; average of two measurements; 1.2 mM p-NPP, pH 5.5, 10% DMSO
# T1 construct: purchased Calbiochem
# T1 sequence (P18031 1-435): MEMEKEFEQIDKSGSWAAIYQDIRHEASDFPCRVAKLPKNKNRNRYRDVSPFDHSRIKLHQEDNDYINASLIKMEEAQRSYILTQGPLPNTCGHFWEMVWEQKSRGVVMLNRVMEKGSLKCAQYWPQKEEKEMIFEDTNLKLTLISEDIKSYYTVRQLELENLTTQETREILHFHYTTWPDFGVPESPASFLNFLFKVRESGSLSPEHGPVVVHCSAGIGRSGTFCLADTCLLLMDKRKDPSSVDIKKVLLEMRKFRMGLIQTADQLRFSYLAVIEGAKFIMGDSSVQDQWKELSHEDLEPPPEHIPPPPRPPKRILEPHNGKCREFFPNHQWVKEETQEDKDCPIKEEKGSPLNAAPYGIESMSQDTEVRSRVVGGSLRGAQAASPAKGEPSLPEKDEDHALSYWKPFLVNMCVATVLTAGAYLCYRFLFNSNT
# Experimental: (§1) PTP1B Assay: PTP1B (purchased from Calbiochem) was assayed usingp-NPP as the substrate and the reaction progress was monitored by UV spectroscopy. Initial rates were determined by monitoring the hydrolysis of p-NPP at 420 nm, from 10 to 120 s after mixing. Assay solutions contained 1.2 mM substrate, 1 mM EDTA, 100 mM NaCl, and 100 mM acetate at pH 5.5, and 10% DMSO. IC50 values were calculated using a Dixon analysis. Data analysis was performed with the commercial graphing package Grafit (Erithacus Software Ltd.).
# LAR PTPase = biological target: T2, LAR PTPase (Homo sapiens, UniProt P10586); test: LAR PTPase assay (p-NPP hydrolysis, UV at 420 nm); conditions: Table 2; average of two measurements; 2.5 mM p-NPP, pH 5.5, 10% DMSO
# T2 construct: purchased Calbiochem
# T2 sequence (P10586 1301-1639 limits assumed): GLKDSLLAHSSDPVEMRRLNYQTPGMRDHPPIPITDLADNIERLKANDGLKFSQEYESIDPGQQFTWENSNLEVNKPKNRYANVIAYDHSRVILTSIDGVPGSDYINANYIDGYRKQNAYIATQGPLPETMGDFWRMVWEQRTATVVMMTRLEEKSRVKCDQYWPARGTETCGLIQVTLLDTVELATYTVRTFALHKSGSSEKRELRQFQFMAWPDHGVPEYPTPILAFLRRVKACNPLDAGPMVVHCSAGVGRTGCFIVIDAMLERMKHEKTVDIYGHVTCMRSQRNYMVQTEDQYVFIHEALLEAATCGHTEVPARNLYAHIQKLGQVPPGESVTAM
# Experimental: as §1, with “Yersinia and LAR PTPase Assays: The phosphatase activities of the Yersinia and LAR PTPases (purchased” for “PTP1B Assay: PTP1B (purchased”, “Calbiochem) were” for “Calbiochem) was”, “assayed using p-NPP” for “assayed usingp-NPP”, “contained 2.5” for “contained 1.2”, “NaCl,” for “NaCl, and”
smiles,measurement,setting,value
O=C(O)C(=O)c1ccc(O)cc1 [Compound 27],IC50,PTP1B,250 ± 30 µM
same,IC50,LAR PTPase,540 ± 80 µM
